ChEMBL document CHEMBL4888484, “Replenishing the malaria drug discovery pipeline: Screening and hit evaluation of the MMV Hit Generation Library 1 (HGL1) against asexual blood stage Plasmodium falciparum ,using a nano luciferase reporter read-out” (2022)
In all, about 150,000 compounds went through this assay and about 540 (0.36%) showed an effect of 50% or more. The list shows a part of the results.

test system: Plasmodium falciparum; experiment: Primary screen in NF54 nanoGlo assay, in single point, at 2uM, 72h; a lower Z score goes with more inhibition; format: functional, Erythrocyte; details: timepoint 72 hour

| Compound | % Inhibition [%] | Z score |
| --- | --- | --- |
| CCCCN(C)S(=O)(=O)NCc1ccncc1OC[C@H]1CCOC1 | -7 | 1.38 |
| Cc1c(C(=O)Nc2c(C)n(C)n(-c3ccccc3)c2=O)c(-c2ccccc2)nn1-c1ccccc1 | -32 | 3.8 |
| FC(F)(F)c1cccc(Cn2nnnc2N2CCCOCC2)c1 | 1 | -0.11 |
| Cc1n[nH]cc1CNc1ccc(N2CCOCC2)nc1 | -11 | 1.42 |
| O=C(NCc1nnc(C2CC2)o1)c1noc2c1CCc1ccccc1-2 | -6 | 1.01 |
| CCCNC(=O)c1nc(CS(=O)(=O)c2ccccc2)no1 | -1 | 0.24 |
| CC(=O)N(CCN1CCCCC1)[C@H]1CCCN(C(=O)c2ccn(C)n2)C1 | -7 | 1 |
| O=C(N[C@@H]1COC2(CCCCC2)C1)c1cccn2cnnc12 | -1 | 0.09 |
| Cc1n[nH]c(NCC2(C)COC2)c1C#N | -18 | 2.02 |
| CCc1nc(-c2ccc(-c3noc([C@H]4CC(=O)N(c5ccc(C)cc5)C4)n3)cc2)cs1 | -12 | 1.25 |
| Cc1nnc(Cn2nnc(C(=O)NCCC3CC4CCC3C4)c2C)o1 (centres undefined) | -9 | 1.06 |
| CC(C)[C@H](CO)NC(=O)NCc1cc(-c2ccccc2Cl)on1 | -7 | 0.83 |
| Cc1cc(C(=O)N(CC2CCN(C3Cc4ccccc4C3)CC2)C[C@H]2CCCO2)nn1C | -22 | 1.96 |
| COc1ccc(OC)c([C@H](c2cc3c(cc2O)OCO3)N2CCCC2)c1 | 36 | -0.9 |
| Cc1ccsc1CN(Cc1ccccc1)C(=O)CN(C(=O)C1CCCC1)C1CCCCC1 | -2 | 0.35 |
| CC(=O)Nc1cccc(C(=O)N(CCC(=O)N2CCNCC2)CC(C)C)c1 | 0 | -0.04 |
| CCc1noc(C)c1C(=O)N(CCO)Cc1nccn1C | -9 | 0.82 |
| CC1OCCC1(C)NCCOc1ccccc1 (centres undefined) | 0 | 0.05 |
| Cn1c(=O)c2cn3c(c2n(C)c1=O)[C@@H](c1ccc(F)cc1)Nc1ccccc1-3 | 4 | -0.7 |
| CNC(=O)NCc1cn(Cc2coc(C(C)(C)C)n2)nn1 | 1 | -0.17 |
| C[C@@H]1N[C@@]2(C(=O)Nc3ccccc32)[C@@H]2C(=O)N(c3cccc(Br)c3)C(=O)[C@H]12 | -11 | 1.37 |

| Compound | % Inhibition [%] | Z score |
| --- | --- | --- |
| CCCN(CC(=O)NC)S(=O)(=O)c1ccc(Cl)cc1C | -4 | 0.45 |
| CCc1noc(Cn2ccc(-c3ccsc3)n2)n1 | -18 | 2.02 |
| Cc1ccc2nc(NC(=O)C(=O)c3cccn3Cc3ccc(C)c(C)c3)sc2c1 | -14 | 1.29 |
| COC(=O)c1ccc2c(c1)n(Cc1ncccn1)c(=O)n2C1CCCCC1 | -21 | 2.14 |
| Cc1nc2ccc(NC(=O)COc3cccc4cccnc34)cc2s1 | -20 | 3.79 |
| CC(C)(NCCCN1CCOC1=O)c1nccs1 | 11 | -1.18 |
| C[C@@H](C(=O)Nc1ccc(Cl)cn1)N(C)CCOc1ccccc1 | -9 | 0.79 |
| O=C(NC[C@H]1CCC(=O)N(Cc2ccccc2)CC1)C1CCCC1 | -11 | 1.11 |
| CCCN(C[C@H]1CCOC1)C(=O)Nc1cccc(CC)c1 | 0 | 0.05 |
| C=CC[C@]1(CO)CCCN(Cc2ccc3occc3c2)C1 | -11 | 1.74 |
| CCCc1cc(C(=O)N(C)[C@@H](C)c2nccs2)ccn1 | -12 | 1.37 |
| Cn1cnc2c1CCN(C(=O)Cc1ccc3cn[nH]c3c1)C21CCOCC1 | -4 | 0.69 |
| CCN(CCc1nc2ccccc2[nH]1)S(=O)(=O)N1CCCC1 | -4 | 0.6 |
| CCCCN(C)S(=O)(=O)NC1CCN2CCCCC12 (centres undefined) | -12 | 1.73 |
| CNC(=O)CCNS(=O)(=O)c1cc(N(C)S(C)(=O)=O)c(C)cc1C | 2 | -0.23 |
| CCc1nnc(Cn2cc(-c3ccnc4ccccc34)nn2)s1 | -2 | 0.29 |
| CCCc1ncc(C(=O)N2CCCC2)s1 | -10 | 1.32 |
| Cn1c(=O)c(C(=O)NCC2CCN(Cc3cccc(F)c3)CC2)nn(-c2ccc(Cl)cc2)c1=O | -9 | 1.5 |
| Cc1nc(C)c(CN2CCC2(C)C)s1 | 9 | -1.68 |
| CCNC(=O)[C@H](C)NS(=O)(=O)CCC1CCCCC1 | 15 | -1.72 |
| O=C(CNC(=O)Cc1ccccc1)NCCCCOc1ccc(Cl)cc1 | -3 | 0.55 |
